This is one part of the list. Antibody binding of pooled human sera (four to six donors per pool; dilution not stated) to peptides of the Trypanosoma cruzi antigen TSSA on microarrays. Quantile-normalised fluorescence in arbitrary units, mean of duplicate arrays; higher = more binding. No active / inactive call. The uninfected pools are read here as the healthy donors of the same country. The strongest signals lie near the top of the scale (about 60,000).
Legend:
Experiment in all cases: antibody binding signal (normalised fluorescence) (arbitrary fluorescence units); higher = stronger serum antibody binding to peptide
[1] = tested on: pooled sera of chronic Chagas disease patients, Argentina
Description: (§1)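 Microarray of 15-residue peptides over residues 30-55 of Trypanosoma cruzi TSSAII, each with 1 to 10 substitutions at naturally variable positions, probed with one serum pool per country.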

[2] = tested on: pooled sera of chronic Chagas disease patients, Bolivia
Description: as §1

[3] = tested on: pooled sera of chronic Chagas disease patients, Brazil
Description: as §1

[4] = tested on: pooled sera of chronic Chagas disease patients, Colombia
Description: as §1

[5] = tested on: pooled sera of chronic Chagas disease patients, Mexico
Description: as §1

[6] = tested on: pooled sera of chronic Chagas disease patients, USA
Description: as §1

[7] = tested on: pooled sera of uninfected people, Argentina
Description: as §1

[8] = tested on: pooled sera of uninfected people, Bolivia
Description: as §1

[9] = tested on: pooled sera of uninfected people, Brazil
Description: as §1

[10] = tested on: pooled sera of uninfected people, Colombia
Description: as §1

[11] = tested on: pooled sera of uninfected people, Mexico
Description: as §1

[12] = tested on: pooled sera of uninfected people, USA
Description: as §1

Row | Sequence | antibody binding signal [1] | antibody binding signal [2] | antibody binding signal [3] | antibody binding signal [4] | antibody binding signal [5] | antibody binding signal [6] | antibody binding signal [7] | antibody binding signal [8] | antibody binding signal [9] | antibody binding signal [10] | antibody binding signal [11] | antibody binding signal [12]
1 | DNKPAAGGTPSQPGA | 206 | 655 | 7080 | 1360 | 263 | 388 | 299 | 525 | 1660 | 586 | 746 | 147
2 | GKDNKPATGEAPSQP | 51900 | 49900 | 55500 | 2400 | 2550 | 42000 | 1140 | 944 | 301 | 298 | 335 | 146
3 | GTENKAATGGAPSQS | 35900 | 1780 | 4320 | 1360 | 2360 | 3810 | 315 | 500 | 196 | 226 | 170 | 198
4 | ENKAAAGEAPSPPGA | 1180 | 807 | 27300 | 253 | 158 | 13700 | 163 | 119 | 121 | 104 | 97.2 | 114
5 | GKEKKTATGGTPSQS | 3470 | 291 | 402 | 2380 | 3150 | 2630 | 229 | 98.4 | 151 | 131 | 133 | 93.3
6 | KEKKAATGETPSQSG | 551 | 360 | 7900 | 411 | 429 | 7410 | 232 | 91 | 107 | 287 | 124 | 124
7 | SGKENKAAAGGTPSP | 3220 | 2350 | 17200 | 8800 | 3970 | 16600 | 5310 | 1250 | 425 | 320 | 217 | 149
8 | KENKAATGETPSPSG | 3690 | 1210 | 16900 | 245 | 173 | 12400 | 175 | 199 | 119 | 192 | 213 | 3180
9 | TENKTAAGETPSQPG | 23800 | 3290 | 30800 | 199 | 220 | 3080 | 202 | 775 | 227 | 253 | 195 | 167
10 | GKEKKPATGETPSQS | 29700 | 6640 | 23100 | 4720 | 6610 | 19400 | 202 | 190 | 99 | 110 | 639 | 305
11 | DKKAATGETPSQSGA | 2230 | 1580 | 16800 | 162 | 252 | 10200 | 356 | 195 | 211 | 695 | 206 | 186
12 | STPPSGKDNKAATGE | 13300 | 18500 | 12000 | 313 | 18600 | 5880 | 303 | 693 | 208 | 291 | 143 | 117
13 | TPPSGKENKTAAGGT | 20000 | 4830 | 4780 | 1710 | 5690 | 3470 | 2910 | 1160 | 1360 | 489 | 260 | 264
14 | TPPSGKDNKPATGGT | 4990 | 3700 | 29100 | 255 | 24400 | 13600 | 479 | 1210 | 776 | 188 | 386 | 258
15 | GKENKTATGETPSQS | 12000 | 3500 | 18800 | 18300 | 16400 | 19900 | 508 | 266 | 177 | 197 | 279 | 169
16 | SGTENKTATGEAPSP | 26600 | 33100 | 25300 | 206 | 273 | 24700 | 375 | 279 | 197 | 279 | 159 | 139
17 | GKENKTAAGGTPSQP | 1290 | 246 | 2950 | 4090 | 2120 | 8990 | 534 | 86.8 | 205 | 116 | 949 | 143
18 | PPSGTDKKPAAGGAP | 20700 | 3830 | 38700 | 14600 | 48600 | 2840 | 1040 | 767 | 311 | 587 | 2400 | 569
19 | PSGTDNKAATGGAPS | 23100 | 14100 | 45300 | 935 | 740 | 1770 | 476 | 735 | 2070 | 361 | 320 | 236
20 | DKKPAAGEAPSPSGA | 526 | 193 | 12700 | 206 | 249 | 16200 | 130 | 151 | 173 | 105 | 95.3 | 154

Source: the supplement of paper PMC10441789
